# Results reported in paper PMC4215718.
# Sequences of proteins named here, by UniProt entry; tags and fusion partners are left off.
# UniProt Q13561: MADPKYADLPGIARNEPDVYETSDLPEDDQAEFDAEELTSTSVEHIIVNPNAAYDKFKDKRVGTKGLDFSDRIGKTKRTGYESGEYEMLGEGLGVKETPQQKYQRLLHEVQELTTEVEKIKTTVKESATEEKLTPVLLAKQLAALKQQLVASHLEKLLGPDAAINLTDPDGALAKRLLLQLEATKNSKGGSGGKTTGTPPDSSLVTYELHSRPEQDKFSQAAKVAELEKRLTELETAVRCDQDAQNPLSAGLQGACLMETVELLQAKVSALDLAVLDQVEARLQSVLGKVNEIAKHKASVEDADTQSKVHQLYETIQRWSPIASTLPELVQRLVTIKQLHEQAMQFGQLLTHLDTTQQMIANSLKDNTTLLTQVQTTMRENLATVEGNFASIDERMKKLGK
# UniProt Q13409: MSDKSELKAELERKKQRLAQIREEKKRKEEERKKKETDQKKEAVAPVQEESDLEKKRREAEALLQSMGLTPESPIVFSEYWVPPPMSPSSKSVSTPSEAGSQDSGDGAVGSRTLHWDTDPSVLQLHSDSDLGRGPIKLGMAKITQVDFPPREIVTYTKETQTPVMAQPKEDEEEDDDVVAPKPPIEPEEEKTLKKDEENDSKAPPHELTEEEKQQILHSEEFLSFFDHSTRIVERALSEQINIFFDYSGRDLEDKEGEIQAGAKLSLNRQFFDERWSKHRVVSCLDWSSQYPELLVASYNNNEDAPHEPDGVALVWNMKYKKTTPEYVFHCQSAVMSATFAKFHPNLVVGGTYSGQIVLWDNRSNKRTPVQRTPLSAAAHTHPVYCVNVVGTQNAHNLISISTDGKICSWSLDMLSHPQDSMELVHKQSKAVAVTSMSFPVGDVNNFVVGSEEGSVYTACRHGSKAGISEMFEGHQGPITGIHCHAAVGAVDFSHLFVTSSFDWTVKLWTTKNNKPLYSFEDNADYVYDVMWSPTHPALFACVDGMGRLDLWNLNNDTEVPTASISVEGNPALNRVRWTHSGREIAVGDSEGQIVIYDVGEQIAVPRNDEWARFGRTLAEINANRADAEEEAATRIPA
# UniProt Q8WVS4: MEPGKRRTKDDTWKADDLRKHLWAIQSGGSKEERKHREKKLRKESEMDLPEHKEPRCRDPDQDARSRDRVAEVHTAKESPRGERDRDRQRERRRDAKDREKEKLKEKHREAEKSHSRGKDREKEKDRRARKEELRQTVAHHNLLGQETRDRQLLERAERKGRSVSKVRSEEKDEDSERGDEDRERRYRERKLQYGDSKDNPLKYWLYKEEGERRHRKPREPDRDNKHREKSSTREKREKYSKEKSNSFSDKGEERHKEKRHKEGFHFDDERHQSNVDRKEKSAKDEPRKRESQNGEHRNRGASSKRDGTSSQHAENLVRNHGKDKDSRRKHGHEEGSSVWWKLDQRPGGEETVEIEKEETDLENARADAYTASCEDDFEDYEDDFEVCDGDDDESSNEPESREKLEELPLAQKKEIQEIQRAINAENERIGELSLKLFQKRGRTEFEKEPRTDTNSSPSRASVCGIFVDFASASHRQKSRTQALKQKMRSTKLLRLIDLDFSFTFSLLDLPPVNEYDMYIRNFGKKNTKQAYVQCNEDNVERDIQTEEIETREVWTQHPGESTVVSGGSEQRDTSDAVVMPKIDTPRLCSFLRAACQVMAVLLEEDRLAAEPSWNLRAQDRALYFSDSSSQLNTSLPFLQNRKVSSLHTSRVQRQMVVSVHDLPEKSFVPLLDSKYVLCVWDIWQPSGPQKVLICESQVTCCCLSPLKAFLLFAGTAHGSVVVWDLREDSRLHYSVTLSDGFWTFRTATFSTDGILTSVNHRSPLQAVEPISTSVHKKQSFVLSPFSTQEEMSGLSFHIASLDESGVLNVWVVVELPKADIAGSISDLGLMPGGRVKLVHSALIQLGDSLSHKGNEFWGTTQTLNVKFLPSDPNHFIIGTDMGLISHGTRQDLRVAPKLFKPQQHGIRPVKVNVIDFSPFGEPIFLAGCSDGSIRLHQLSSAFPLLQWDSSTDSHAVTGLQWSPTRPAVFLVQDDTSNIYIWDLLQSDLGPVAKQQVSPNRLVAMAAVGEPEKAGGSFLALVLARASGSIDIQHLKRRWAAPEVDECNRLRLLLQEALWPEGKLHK
# UniProt P63172: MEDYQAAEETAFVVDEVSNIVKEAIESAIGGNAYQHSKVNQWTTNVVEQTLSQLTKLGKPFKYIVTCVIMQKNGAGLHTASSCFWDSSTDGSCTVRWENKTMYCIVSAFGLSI
# UniProt P04406: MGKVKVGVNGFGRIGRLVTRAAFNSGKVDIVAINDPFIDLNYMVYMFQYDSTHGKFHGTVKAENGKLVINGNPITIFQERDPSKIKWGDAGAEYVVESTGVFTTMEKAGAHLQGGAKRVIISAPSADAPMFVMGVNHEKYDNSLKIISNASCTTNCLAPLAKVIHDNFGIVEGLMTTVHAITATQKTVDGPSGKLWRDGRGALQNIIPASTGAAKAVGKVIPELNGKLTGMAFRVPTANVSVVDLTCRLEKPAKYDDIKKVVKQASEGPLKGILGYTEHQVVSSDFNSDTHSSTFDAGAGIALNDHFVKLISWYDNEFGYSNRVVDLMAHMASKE
# UniProt Q8WW35: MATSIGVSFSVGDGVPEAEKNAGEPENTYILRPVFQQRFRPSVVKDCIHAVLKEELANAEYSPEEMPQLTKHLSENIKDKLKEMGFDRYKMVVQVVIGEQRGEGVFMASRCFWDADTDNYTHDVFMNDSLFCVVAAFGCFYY
# No constants are given. Whether binding was seen depends on the method and setting. In cells and extracts the contact can be indirect. Some binding calls cover weakened binding; strength is not graded here. For some of these results: Sequences can lack the tags named with a protein.
# T1: mGFP–WDR34 (human), Q96EX3
# T1 chain: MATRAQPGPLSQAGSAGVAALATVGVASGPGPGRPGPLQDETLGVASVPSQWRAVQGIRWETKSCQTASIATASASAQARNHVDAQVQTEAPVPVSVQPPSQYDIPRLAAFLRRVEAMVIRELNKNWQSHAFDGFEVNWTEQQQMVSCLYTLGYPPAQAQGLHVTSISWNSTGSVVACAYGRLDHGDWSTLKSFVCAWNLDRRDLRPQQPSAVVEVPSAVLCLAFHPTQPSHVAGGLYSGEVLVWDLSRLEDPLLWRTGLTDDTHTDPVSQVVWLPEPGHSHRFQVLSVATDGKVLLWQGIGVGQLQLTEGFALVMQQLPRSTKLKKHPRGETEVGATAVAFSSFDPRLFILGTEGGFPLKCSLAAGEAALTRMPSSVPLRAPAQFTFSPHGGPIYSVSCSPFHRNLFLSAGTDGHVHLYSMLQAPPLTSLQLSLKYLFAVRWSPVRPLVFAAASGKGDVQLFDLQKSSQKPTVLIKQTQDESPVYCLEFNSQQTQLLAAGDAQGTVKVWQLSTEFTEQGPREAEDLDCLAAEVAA
# B1: NudCD3 (protein, UniProt Q8IVD9 1-361)
# chain: METGAAELYDQALLGILQHVGNVQDFLRVLFGFLYRKTDFYRLLRHPSDRMGFPPGAAQALVLQVFKTFDHMARQDDEKRRQELEEKIRRKEEEEAKTVSAAAAEKEPVPVPVQEIEIDSTTELDGHQEVEKVQPPGPVKEMAHGSQEAEAPGAVAGAAEVPREPPILPRIQEQFQKNPDSYNGAVRENYTWSQDYTDLEVRVPVPKHVVKGKQVSVALSSSSIRVAMLEENGERVLMEGKLTHKINTESSLWSLEPGKCVLVNLSKVGEYWWNAILEGEEPIDIDKINKERSMATVDEEEQAVLDRLTFDYHQKLQGKPQSHELKVHEMLKKGWDAEGSPFRGQRFDPAMFNISPGAVQF
# B2: LIS1 (protein, UniProt P43034 1-410)
# chain: MVLSQRQRDELNRAIADYLRSNGYEEAYSVFKKEAELDVNEELDKKYAGLLEKKWTSVIRLQKKVMELESKLNEAKEEFTSGGPLGQKRDPKEWIPRPPEKYALSGHRSPVTRVIFHPVFSVMVSASEDATIKVWDYETGDFERTLKGHTDSVQDISFDHSGKLLASCSADMTIKLWDFQGFECIRTMHGHDHNVSSVAIMPNGDHIVSASRDKTIKMWEVQTGYCVKTFTGHREWVRMVRPNQDGTLIASCSNDQTVRVWVVATKECKAELREHEHVVECISWAPESSYSSISEATGSETKKSGKPGPFLLSGSRDKTIKMWDVSTGMCLMTLVGHDNWVRGVLFHSGGKFILSCADDKTLRVWDYKNKRCMKTLNAHEHFVTSLDFHKTAPYVVTGSVDQTVKVWECR
# B3: endogenous WDR34, Q96EX3 1-536 (protein)
# chain: T1 chain
# How the values were obtained:
# mGFP–WDR34 (human) = mGFP–WDR34 (human) (UniProt Q96EX3); assay: co-IP; GFP-trap of lysates of serum-starved (24 h) RPE1 cells stably expressing mGFP or mGFP–WDR34; 10 mM Tris-HCl pH 7.4, 50 mM NaCl, 0.5 mM EDTA, 1.0% IGEPAL; 90 min at 4°C; immunoblot of input, unbound and bound fractions
# [1] = biological target: T1, mGFP–WDR34 (human), Q96EX3; assay: as above; conditions: remark: other sources report otherwise
Molecule,binding (mGFP–WDR34 (human)),binding [1]
p50^dynamitin (from UniProt Q13561 1-401),no binding,
"dynein-1 intermediate chain, IC74 (from UniProt Q13409 1-638)",no binding,
WDR60 (from UniProt Q8WVS4 1-1066),binds,
Tctex-1 (from UniProt P63172 1-113),binds,
GAPDH (from UniProt P04406 1-335),no binding,
TCTEX1D2 (from UniProt Q8WW35 1-142),binds,
p150^Glued (from UniProt Q14203-1 1-1278),no binding,
B1,binds,
B2,no binding,
B3,,no binding
